# Assay results: PMC4336329 (PLoS ONE, 2015)
# The whole screen tested about 310,000 compounds, of which about 14,000 (4.5%) showed an effect of 50% or more. Effects have a minus sign here. The list shows a part of the results.
# Biological target: human ether-à-go-go-related gene (hERG) potassium channel (human, UniProt Q12809)
# Assay: primary screen, population patch clamp on CHO cells stably expressing hERG
# 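Also: peak tail current of the secondary pulse compared with the same well before compound.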
# Sequence of human ether-à-go-go-related gene (hERG) potassium channel (Q12809 whole entry, looked up): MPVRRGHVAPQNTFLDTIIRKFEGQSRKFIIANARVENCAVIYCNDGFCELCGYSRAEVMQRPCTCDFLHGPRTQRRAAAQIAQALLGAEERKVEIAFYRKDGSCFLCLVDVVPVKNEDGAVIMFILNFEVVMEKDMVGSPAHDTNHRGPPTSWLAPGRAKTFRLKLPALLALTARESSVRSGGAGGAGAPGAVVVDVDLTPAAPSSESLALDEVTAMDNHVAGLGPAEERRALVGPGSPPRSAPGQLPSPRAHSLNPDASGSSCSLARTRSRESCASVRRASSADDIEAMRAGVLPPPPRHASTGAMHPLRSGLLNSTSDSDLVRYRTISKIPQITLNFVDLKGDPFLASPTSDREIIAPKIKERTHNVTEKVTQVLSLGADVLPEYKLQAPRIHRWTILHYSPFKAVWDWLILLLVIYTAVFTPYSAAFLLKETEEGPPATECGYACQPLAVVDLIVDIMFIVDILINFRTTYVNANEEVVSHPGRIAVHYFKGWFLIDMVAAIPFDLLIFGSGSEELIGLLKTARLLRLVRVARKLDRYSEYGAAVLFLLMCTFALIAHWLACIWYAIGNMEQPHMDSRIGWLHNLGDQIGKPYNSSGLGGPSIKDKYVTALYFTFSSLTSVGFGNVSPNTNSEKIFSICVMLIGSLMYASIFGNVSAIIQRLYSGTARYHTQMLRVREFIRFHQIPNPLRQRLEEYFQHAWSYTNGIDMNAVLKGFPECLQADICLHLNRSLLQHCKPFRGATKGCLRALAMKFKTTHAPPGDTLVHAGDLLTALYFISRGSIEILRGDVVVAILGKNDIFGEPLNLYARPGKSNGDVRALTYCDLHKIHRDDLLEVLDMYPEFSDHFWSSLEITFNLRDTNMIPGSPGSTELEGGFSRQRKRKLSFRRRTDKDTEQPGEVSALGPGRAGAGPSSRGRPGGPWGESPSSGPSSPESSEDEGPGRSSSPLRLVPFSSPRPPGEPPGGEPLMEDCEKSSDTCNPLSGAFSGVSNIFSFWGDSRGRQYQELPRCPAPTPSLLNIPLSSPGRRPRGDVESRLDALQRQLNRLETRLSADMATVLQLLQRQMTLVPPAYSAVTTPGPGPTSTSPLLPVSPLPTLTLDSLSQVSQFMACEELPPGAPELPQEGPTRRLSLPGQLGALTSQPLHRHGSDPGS
row,Structure (SMILES),"hERG current change (%, negative = inhibition) at 10uM [%]"
1,CC1CCN(c2c(NCC3CCC(C(=O)N4CCc5ccccc5C4)CC3)c(=O)c2=O)CC1 (stereo not drawn),11.8
2,CN1CC(=O)N(CC(=O)N2CCC(Cc3ccccc3)CC2)C1=O,26.1
3,COc1cccc(C(=O)Nc2ccc(S(=O)(=O)N3CCN(C)CC3)cc2)c1,6.51
4,COc1ccc(-c2sc3cc(OC)c(OC)cc3c2C#CC(C)(C)O)cc1,23.7
5,COc1ccccc1N1CCN(CCC(=O)Nc2ccc(F)cc2)CC1,-19.3
6,CCOc1ccc2nc(N3CCCCCC3)sc2c1,-19.2
7,CCOCCCNC(C(=O)Nc1ccc(OC)c(Cl)c1)c1ccccc1 (stereo not drawn),-35.1
8,O=C(c1ccc(S(=O)(=O)Nc2cccc(C(F)(F)F)c2)cc1)N1CCN(c2ccccc2O)CC1,-16.5
9,O=C(COC(=O)c1ccc(F)cc1)NCCCc1ccccc1,7.48
10,COc1ccc(O)c(C(=O)CC(=O)c2ccc(F)cc2)c1,-26.8
11,CC(C)CN(C(=O)c1cccc(S(=O)(=O)N2CCN(Cc3ccccc3)CC2)c1)C1CCS(=O)(=O)C1 (stereo not drawn),-1.5
12,Cc1cc(/C=C2\C(=O)NN(c3ccccc3)C2=O)c(C)n1-c1ccccc1O,6.49
13,Cc1ccc(N2C(=O)N(CC(=O)NCc3ccccc3Cl)C(=O)C2C)cc1 (stereo not drawn),8.4
14,CN(Cc1ccon1)Cc1cn(C)nc1-c1cccc(Cl)c1,12.2
15,Cc1cc(-c2ccc(C)c(S(=O)(=O)NCCc3ccc(S(N)(=O)=O)cc3)c2)on1,-4.87
16,CCCCOC(=O)c1ccc(NC(=O)c2ocnc2C)cc1,-8.8
17,COc1cc(/C=N/Nc2cccc(C)c2)ccc1OC(=O)c1ccco1,23.4
18,CN(Cc1ccccc1)Cc1nc2c(c(=O)n(C)c(=O)n2C)n1Cc1ccc(Cl)cc1,-30.1
19,O=C(COc1ccc2ccc(=O)oc2c1)Nc1ccc(CN2CCOCC2)cc1,1.32
20,c1ccc(-c2nnc(N3CCOCC3)c3ccccc23)cc1,7.71
21,C[C@@H](CN1C2=NC[C@H](Cc3ccccc3)N2C[C@H]1Cc1ccc(O)cc1)NC(=O)CCC1CCCCC1,-71.2
22,COc1ccc(N2CCN(c3cc(C)c4ccc(C)cc4n3)CC2)cc1,-40.5
23,CC(NC(=O)CSc1n[nH]c(=O)n1C1CC1)C12CC3CC(CC(C3)C1)C2 (stereo not drawn),-9.71
24,C=CCSc1nnc(NC(=O)c2cccc(S(=O)(=O)N3CCOCC3)c2)s1,-11.1
25,C=CCNc1nc(Nc2ccc(OC)cc2)nc(OC)n1,-11
26,O=C(O)c1ccccc1C(=O)NCCc1c(C(=O)O)[nH]c2ccc(Cl)cc12,7.84
27,COc1ccccc1NC(=O)c1ccc(COc2ccccc2OC)o1,-0.515

row,Structure (SMILES),"hERG current change (%, negative = inhibition) at 10uM [%]"
1,CC(=O)N1CCOc2ccc(S(=O)(=O)N3CCCCC3)cc21,11.6
2,COc1ccc(/C=C/C(=O)OCC(=O)NCCC2=CCCCC2)cc1OC,-22
3,C/C(Cn1cnc([N+](=O)[O-])n1)=N\NC(=O)c1ccncc1,7.26
4,O=C(CSc1nnc(-c2cccnc2)o1)c1cc2ccccc2oc1=O,16.8
5,CC(C)(C)c1ccc(CNC(=O)C2CCCN2C(=O)Nc2ccccc2)cc1 (stereo not drawn),1.67
6,C=CCOc1ccc2c(c1)c(S(=O)(=O)c1ccc(C)cc1)cn2COC,2.15
7,CC1CCCN(CCOc2ccc(Br)cc2)C1 (stereo not drawn),-51.3
8,O=C(Nc1ccccc1OC(F)F)c1cc2c(s1)CCC2,-16.4
9,COc1ccc(N2C(=O)C(CC(=O)Nc3ccc(Cl)cc3)N(NC(=O)c3cccc(F)c3)C2=S)cc1 (stereo not drawn),14
10,COc1ccc2nc(SCC(=O)c3c(N)n(C4CC4)c(=O)[nH]c3=O)[nH]c2c1,7.85
11,CCc1c(C)c2ccc(O)c(CN3CCCC3)c2oc1=O,4.46
12,COc1ccc2c(c1)C=C(CN1CCN(C3CCCC3)C(CCO)C1)CO2 (stereo not drawn),-68.2
13,CNC(=S)N(CCc1ccc(OC)c(OC)c1)C1CC(=O)N(c2ccccc2)C1=O (stereo not drawn),8.95
14,CC1CC(N(C(=O)C2CC2)c2ccccc2)c2ccccc2N1C(=O)C1CC1 (stereo not drawn),-1.49
15,Cc1ccc(C(=O)O)cc1NC(=O)CN1C(=O)C2C3c4ccccc4C(Br)(c4ccccc43)C2C1=O (stereo not drawn),14.4
16,COc1cc(/C=C(\C#N)C(=O)NC2CCCCC2C)ccc1OS(=O)(=O)c1ccc(C)cc1 (stereo not drawn),-5.99
17,CCCC1=C(C(=O)OCC)C(c2cccs2)n2ncnc2N1 (stereo not drawn),-0.0931
18,COc1ccc(CN2CCN(c3cccc(C)c3C)CC2)cc1OC,-72
19,COCCCNC(=O)CC(NCCCOC)C(=O)O (stereo not drawn),14.7
20,Cc1ccc(C)c(NC(=O)c2cc3ccccn3n2)c1,-18.7
21,O=c1ccc2cc(S(=O)(=O)N3CCN(c4ccccc4)CC3)ccc2o1,-0.646
22,Cc1cc(C)c(O)c(-c2cc(C(=O)Nc3cccnc3)[nH]n2)c1,5.85
23,CC[N+](CC)(CCCCS(=O)(=O)[O-])CCNP1(=O)C=C(c2ccccc2)OC(c2ccccc2)=C1,9.75
24,Cc1[nH]nc2c1C1(C(=O)Nc3ccc([N+](=O)[O-])cc31)C(C#N)=C(N)O2 (stereo not drawn),24.9
25,O=C1CN(Cc2nc3cc(Cl)ccc3c(=O)[nH]2)CCN1,25.4
26,COc1cc(NC(=O)COc2ccc3c(C)cc(=O)oc3c2C)cc(OC)c1OC,20.4
27,CCn1c2ccccc2n2c(=O)c(=O)n(CC(=O)Nc3ccc(C(C)C)cc3)nc12,5.64
